The source of these data is PubChem BioAssay AID463173 (ICCB-Longwood Screening Facility, Harvard Medical School, 2010).

Structures are written as SMILES. About 4,300 (8.3%) of roughly 52,000 compounds were called active. Cut-off read from the data, not from the text of the source: active = survival mostly below about 52% (no sharp cut-off); inactive = mostly above about 56%. Some of the results follow.

For this test, the system named is DeltatarO mutant. In words: S. aureus survival, RN4220 and DeltatarO strains – OD600, teichoic acid synthesis inhibitors, primary screen (AID 463173). To be noted: S. aureus RN4220 wild type/DeltatarO growth, OD600, 18 h, hits give low values, screened at 18.75 µg/mL (by protocol).
Take `CCc1ccc(NC(=O)c2cc(C)nn2-c2ccccc2)cc1`: the survival was inactive: 65%.
For the compound `CCOC(=O)c1c(C)n(-c2ccccc2)c2ccc(OC(=O)c3cc(OC)cc(OC)c3)cc12`, the survival is inactive: 75%.
Take `CCOC(=O)c1c(NC(=O)c2cc3ccccc3c(=O)o2)sc2c1CCC(C(C)(C)C)C2` (centres undefined): the survival is inactive: 53%.
To `CC(=O)Nc1ccc(-c2nn3c(C)nnc3s2)cc1` belongs inactive: 76%; to `O=C(Oc1ccc(OC(=O)N2CCOCC2)cc1)N1CCOCC1`, inactive: 87%; to `CCOC(=O)N1CCc2c(sc3c2c(=O)n(-c2ccc(F)cc2)c(=O)n3CC(=O)c2ccccc2)C1`, inactive: 77%.
As to `O=C(NCCc1ccccc1)C1COc2ccccc2C1` (centres undefined), the survival was active: 37%.
In the case of `O=C(c1ccc2c(c1)N(Cc1ccc(Cl)cc1)C(=O)c1ccccc1S2(=O)=O)N1CCc2ccccc21`, the survival was inactive: 120%.
Consider `CCC(C(=O)Nc1cccc(C#N)c1)n1nc(-c2ccccc2)ccc1=O` (centres undefined), for which the survival was active: 40%.
Turning to `COC(=O)c1ccccc1NC(=O)CSc1nnc2cc(C)c3cc(C)cc(C)c3n12`, the survival is inactive: 60%.
Turning to `Cc1ccc(NC(=O)CCCn2nc(C)c3sc4ccccc4c3c2=O)c(Cl)c1`, the survival was inactive: 84%.
`Cc1ccc(-c2nnc(Nc3cccc(Br)c3)c3ccccc23)cc1S(=O)(=O)NCC1CCCO1` (centres undefined): the survival is inactive: 70%.
On to `O=C(NCc1ccc(F)cc1)C(=O)NCC(c1ccco1)S(=O)(=O)c1cccs1` (centres undefined), for which the survival is active: 8%.
For the compound `O=C(Cn1ccc2cc(S(=O)(=O)N3CCCC3)ccc21)NCc1ccccc1Cl`, the survival was inactive: 65%.
Regarding `CCOc1ccc(C2C(=O)N(C3CCCCCC3)CC(=O)N2CCc2ccc(Cl)cc2)cc1OC` (centres undefined), the survival was inactive: 75%.
Regarding `CCCc1ccc(-c2ccc(/C=C/C(=O)O)cc2)nc1`, the survival was inactive: 82%.
For `COc1ccc(Cl)cc1S(=O)(=O)N1CCCC1`, the survival was inactive: 103%.
Consider `CCOc1ccc(NC(=O)CCNS(=O)(=O)c2cccc3nsnc23)cc1`, for which the survival was inactive: 52%.
To `Cc1ccc(Nc2nc(C)c(NC(=O)c3ccc(C)cc3)c(Nc3ccc(C)cc3)n2)cc1` belongs inactive: 116%; to `CCOc1ccc(C(=O)Nc2ccc3oc(-c4ccncc4)nc3c2)cc1`, inactive: 74%.
For `CCS(=O)(=O)N1CCc2cc(C(=O)Nc3cc(OC)c(Cl)cc3OC)ccc21`, the survival is active: 43%.
To `CCc1cccc(C)c1NC(=O)C(CC)Sc1nncn2c1cc1occc12` (centres undefined) belongs active: 53%; to `CCC(=O)Nc1cc(-c2nc3ccccc3s2)c(Cl)cc1Cl`, inactive: 132%; to `COc1ccc(NC(=O)c2oc3ccccc3c2NC(=O)COc2ccc(F)cc2)c(OC)c1`, inactive: 83%.
Take `Cn1c(=O)n(C)c2cc(NS(=O)(=O)c3ccc(C(C)(C)C)cc3)c(NCc3ccccc3)cc21`: the survival is active: 43%.
On to `Cc1cccc(C(=O)Nc2nnc(S(=O)(=O)N3CCCc4ccccc43)s2)c1`, for which the survival was active: 17%.
Turning to `COc1ccc(CCNC(=O)Cn2nc(C)c3c(C)n(-c4ccc(C)cc4)nc3c2=O)c(OC)c1`, the survival is inactive: 87%.
As to `Cc1c(Cl)cccc1NC(=O)Cn1cnc(S(=O)(=O)N2CCCC2)c1`, the survival was inactive: 90%.
On to `COc1ccc(NC(=O)CC2C(=O)N(c3ccc(C)cc3)C(=O)N2Cc2ccc(C)cc2)cc1` (centres undefined), for which the survival was inactive: 68%.
In the case of `O=c1c2ccccc2c2nc3c(=O)c4ccccc4c3nc12`, the survival was inactive: 61%.
For the compound `CCOc1ccc(NC(=O)CCn2nc(C)c(S(=O)(=O)N3CCCCC3)c2C)cc1`, the survival is inactive: 126%.
On to `Cc1nnc(NCc2ccc(F)cc2)c2c1nnn2Cc1ccccc1Cl`, for which the survival was inactive: 82%.
`COc1ccccc1N1CCN(S(=O)(=O)c2c(C)sc3ncn(CC(=O)NCCN(C)C)c(=O)c23)CC1`: the survival was inactive: 88%.
As for `O=C(NCCC1=CCCCC1)c1ccc2c(c1)N(Cc1ccc(Cl)cc1)C(=O)c1ccccc1S2(=O)=O`, the survival is inactive: 78%.
On to `CCc1ccc(N2C(=O)N(CC(=O)C(C)(C)C)c3ccccc3S2(=O)=O)cc1`, for which the survival was inactive: 72%.
For the compound `CCc1ccc(NC(=O)CSc2nnc(C(C)C)n2CC)cc1`, the survival is inactive: 96%.
In the case of `COC(=O)c1cccc(CN2C(=O)SC(Nc3ccc(Cl)cc3)C2=O)c1` (centres undefined), the survival is inactive: 42%.
For `COc1ccc(Nc2c3c(nc4nncn24)CCC3)cc1Cl`, the survival is inactive: 84%.
To `O=C(Nc1ccccc1C(F)(F)F)N1CCC2(CC1)Oc1ccccc1C(=O)N2Cc1ccccc1F` belongs inactive: 67%; to `CCOC(=O)c1c(C)oc2nc(C)nc(NCc3ccc(OC)cc3)c12`, inactive: 94%.
Take `CCCc1cc(=O)[nH]c(Nc2ccc(C)c(O)c2)n1`: the survival is inactive: 57%.
For `CCCCOc1ccc(C(=O)Nc2nc3c(s2)CC(C)CC3)cc1` (centres undefined), the survival is inactive: 74%.
As for `CC(=O)Nc1ccc(NC(=O)CCc2c(C)nc3c(c(C)nn3-c3ccccc3)c2C)cc1`, the survival is inactive: 107%.
For the compound `CCN(CC)CCCNC(=O)c1nn(-c2ccc(OC)cc2)c(=O)c2c1c1ccccc1n2C`, the survival is inactive: 100%.
For the compound `O=c1c2ccccc2nc(N2CCN(c3cccc(Cl)c3)CC2)n1-c1ccccc1`, the survival is inactive: 63%.
In the case of `CCC(C(=O)N1CCN(c2ccc(OC)cc2)CC1)n1nc(C)n2c(cc3occc32)c1=O` (centres undefined), the survival is inactive: 117%.
`CCC(=O)Nc1ccccc1N1CCN(c2ccc(F)cc2)CC1`: the survival is inactive: 89%.
Turning to `Nc1ccc(S(=O)(=O)NC2(C(F)(F)F)NC(=O)N(c3cccc(Cl)c3)C2=O)cc1` (centres undefined), the survival is inactive: 148%.
Take `Cc1[nH]c2ccccc2c1C(=O)C(=O)NC1CC(=O)N(c2ccccc2)C1` (centres undefined): the survival is inactive: 94%.
To `Cc1cccc(-n2c(SCC(=O)Nc3ccccc3C)nc3c(oc4ccccc43)c2=O)c1` belongs inactive: 87%; to `COC(=O)c1ccc(NC(=O)CN(c2cccc(C(F)(F)F)c2)S(C)(=O)=O)cc1`, inactive: 73%; to `CCc1ccccc1N1C(=O)N(C)c2ccccc2S1(=O)=O`, inactive: 84%.
Regarding `CCc1cc2c(NCC3CCCO3)ncnc2s1` (centres undefined), the survival is inactive: 84%.
`CCCCOC(=O)c1ccc(NC(=O)/C(C#N)=C/c2ccc(C)o2)cc1`: the survival was active: 49%.
As to `CCCCNS(=O)(=O)c1ccc2nc(-c3cccnc3)cc(C(=O)NCCCOCC)c2c1`, the survival was inactive: 79%.
With `Cc1ccc(NC(=O)COCc2cc(-c3cccs3)on2)cc1Cl`, the survival is inactive: 57%.
To `O=C1COc2ccc(-c3cc(-c4ccc(F)cc4)c4c(n3)-c3ccccc3OC4)cc2N1` belongs inactive: 105%; to `CCc1nc(SCc2ccccc2)[nH]c(=O)c1C`, inactive: 93%; to `CCN(C(=O)c1ccc2c(=O)n3c(nc2c1)CCCCC3)c1cc(C)ccc1C`, inactive: 89%.
On to `CSc1nn(Cc2ccc(F)cc2)c(N)c1S(=O)(=O)c1ccc(Cl)cc1`, for which the survival was inactive: 101%.
Consider `COc1cc(C2/C(=C(\O)c3ccccc3)C(=O)C(=O)N2CCC(=O)O)ccc1O` (centres undefined), for which the survival is inactive: 56%.
As for `COc1cccc(CSc2nc(-c3ccccc3OC)nc3c2Cc2c(CO)cnc(C)c2O3)c1`, the survival is inactive: 57%.
Take `CCCN(CCC)CCCNC(=O)C1CCN(S(=O)(=O)c2cccc3nsnc23)CC1`: the survival was inactive: 96%.
As to `CCOc1ccc(S(=O)(=O)N2CCN(c3ccc(C)cc3C)CC2)c2ccccc12`, the survival was inactive: 57%.
`CC(C)CCNC(=O)c1ccc2c(c1)N(C)C(=O)c1ccccc1S2`: the survival is active: -5%.
In the case of `CC1CCN(S(=O)(=O)c2cn(CC(=O)Nc3ccc(F)cc3)c(=O)c3ccccc23)CC1`, the survival was inactive: 70%.
Consider `COc1ccc(N2CCN(Cc3nc(-c4ccc(C)cc4)no3)CC2)cc1`, for which the survival was inactive: 48%.
Turning to `CCOc1cc2[nH]c(=O)n(CCCCCC(=O)NC(C)CC)c(=O)c2cc1OCC` (centres undefined), the survival was inactive: 80%.
To `CSc1cccc(NC(=O)CN(C)S(=O)(=O)c2ccc3c(c2)CCCN3C(C)=O)c1` belongs inactive: 101%; to `CCCOc1cccc(C2c3c(oc4cc(C)c(C)cc4c3=O)C(=O)N2CCCN2CCOCC2)c1` (centres undefined), inactive: 64%.
Take `CCC(=O)N1CCc2cc(S(=O)(=O)NC(C(=O)NCCc3ccc(C)cc3)C(C)C)ccc21` (centres undefined): the survival is inactive: 86%.
For the compound `COCc1cc(C)n(CC(=O)Nc2cccc(C(C)=O)c2)c(=O)c1C#N`, the survival is inactive: 69%.
As for `Cc1ccc(C)c(C(=O)CSc2nc3cc(C(=O)NC4CCCC4)ccc3c(=O)n2CC2CCCO2)c1` (centres undefined), the survival is inactive: 89%.
Regarding `CCOc1ccccc1C(=O)N1CCCCC1CCN1CCOCC1` (centres undefined), the survival was inactive: 87%.
As to `Cc1ccc(-c2nc3cc(NC(=O)c4cc(Br)ccc4Cl)ccc3o2)cc1`, the survival was inactive: 65%.
On to `Cc1ccc(-n2nc3c(N4CCC(C(=O)NCCC(C)C)CC4)nnc(C)c3c2C)cc1`, for which the survival was inactive: 98%.
As for `CC(C)c1ccc(S(=O)(=O)c2cnc(SCC(=O)Nc3ccc(F)cc3F)nc2N)cc1`, the survival is inactive: 94%.
In the case of `Cc1ccc2oc(=O)c3cc(C(=O)Nc4cccc(C#N)c4)sc3c2c1`, the survival was inactive: 67%.
Turning to `Cc1ccccc1-c1nnc(SCC(=O)N2CCCc3ccccc32)n1C`, the survival was inactive: 100%.
Take `Cc1cc(C)cc(-n2ccnc2SCC(=O)Nc2ccc(C)c(Cl)c2)c1`: the survival was inactive: 55%.
In the case of `CCC(=O)N1c2ccccc2CC1C(=O)NCCc1ccc(Cl)cc1` (centres undefined), the survival was inactive: 124%.
Consider `COc1ccc(C2(NC(=O)c3ccc(Cn4cc(Cl)cn4)o3)CCCCC2)cc1`, for which the survival was inactive: 102%.
On to `O=C(Cn1nnnc1-c1ccccc1F)Nc1ccc(F)c(F)c1`, for which the survival was inactive: 77%.
On to `COc1ccc(NC(=O)c2[nH]nc3c2CSc2ccccc2-3)c(OC)c1`, for which the survival was inactive: 49%.
Turning to `CCOc1ccccc1NC(=O)c1nnn(CC(=O)Nc2ccccc2CC)c1N`, the survival is inactive: 84%.
To `O=C(Nc1cnn(C23CC4CC(CC(C4)C2)C3)c1)c1cc(-c2ccccc2)on1` belongs inactive: 101%.
Regarding `O=C(O)CCn1ccc2cc(S(=O)(=O)N3CCCCC3)ccc21`, the survival is inactive: 117%.
As for `COc1ccc(Cl)cc1NC(=O)CCCS(=O)(=O)c1nc(-c2ccc(OC)c(OC)c2)cc(C(F)(F)F)n1`, the survival is inactive: 62%.
Take `CCn1cc2nc(SCc3cccc(F)c3)n(CCc3ccccc3)c(=O)c2n1`: the survival was inactive: 71%.
